# Measurements published in the BET-seq Pho4 binding data (Le et al. 2018).
# Some of the results follow. Values were computed here from the reads of four pooled replicates and scatter widely.
# Target: T1, Pho4 (S. cerevisiae) (UniProt P07270)
# T1 sequence: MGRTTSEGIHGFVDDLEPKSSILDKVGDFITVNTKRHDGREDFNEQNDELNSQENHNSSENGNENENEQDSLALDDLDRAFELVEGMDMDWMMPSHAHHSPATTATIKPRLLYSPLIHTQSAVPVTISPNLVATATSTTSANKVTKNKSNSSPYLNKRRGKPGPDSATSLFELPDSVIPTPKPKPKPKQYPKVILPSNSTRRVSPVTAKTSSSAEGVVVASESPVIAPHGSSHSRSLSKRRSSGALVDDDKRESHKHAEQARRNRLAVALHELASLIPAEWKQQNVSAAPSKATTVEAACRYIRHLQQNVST
# Experiment: relative binding free energy (BET-seq); higher = weaker binding
# Settings: reference: library average
row,Sequence,relative binding free energy
1,GTGATCACGTGAGTAT,0.21 kcal/mol
2,TGATGCACGTGAGTGT,0.15 kcal/mol
3,TGAATCACGTGGTGCA,0.02 kcal/mol
4,CTTAACACGTGGGATG,-0.06 kcal/mol
5,TAGGTCACGTGCGAGT,0.06 kcal/mol
6,TAGGGCACGTGCCGTG,-0.12 kcal/mol
7,CGTGACACGTGGTTCT,-0.05 kcal/mol
8,TAGTTCACGTGTTGTC,0.34 kcal/mol
9,GTGATCACGTGGGTTG,0.08 kcal/mol
10,GGGGGCACGTGATGGT,0.11 kcal/mol
11,GTTTTCACGTGATGGC,0.45 kcal/mol
12,AAGGTCACGTGTGTCT,0.1 kcal/mol
13,CTATGCACGTGAATGG,0.23 kcal/mol
14,TTAGGCACGTGGACTG,-0.06 kcal/mol
15,CGTTTCACGTGTGAAG,0.14 kcal/mol
16,CTGGTCACGTGAGGGG,0.23 kcal/mol
17,ATGTTCACGTGGAGGT,0.32 kcal/mol
18,TGTGGCACGTGTTCGC,-0.05 kcal/mol
19,TGTGTCACGTGGTTTC,0.15 kcal/mol
20,TCTGTCACGTGGTTGG,0.03 kcal/mol
21,AACGTCACGTGTGAGT,0.21 kcal/mol
22,AGTTACACGTGGTGCA,-0.09 kcal/mol
23,ATTAACACGTGGGGCA,0.03 kcal/mol

row,Sequence,relative binding free energy
1,CGTGGCACGTGGTAAA,0.02 kcal/mol
2,GCGGGCACGTGTCAGT,-0.04 kcal/mol
3,GGCTGCACGTGGTGCG,-0.23 kcal/mol
4,TTCGCCACGTGGAGTT,0.21 kcal/mol
5,ACTTTCACGTGCTGGT,0.34 kcal/mol
6,TGATGCACGTGTTCTT,-0.03 kcal/mol
7,GGTGTCACGTGGACGT,0.12 kcal/mol
8,GGGGTCACGTGCGGTT,0.16 kcal/mol
9,GCTGGCACGTGTTGCG,-0.08 kcal/mol
10,GATATCACGTGTGAGG,0.21 kcal/mol
11,GTAGTCACGTGTTTTG,0.17 kcal/mol
12,TAGTACACGTGGTGGA,-0.02 kcal/mol
13,TGAAGCACGTGCGTTT,-0.09 kcal/mol
14,GGATACACGTGTAAGG,0.12 kcal/mol
15,GATTTCACGTGGGTTT,0.36 kcal/mol
16,GGGTGCACGTGTAGGT,0.09 kcal/mol
17,TGGTACACGTGACTTT,0.28 kcal/mol
18,AGGAACACGTGGGAGG,-0.11 kcal/mol
19,GTTGTCACGTGAATAT,0.37 kcal/mol
20,TTAGTCACGTGGGTTT,0.07 kcal/mol
21,AGGCGCACGTGCTGGA,-0.11 kcal/mol
22,ATGCGCACGTGAAGGT,0.04 kcal/mol
23,TGTGTCACGTGATCTA,0.12 kcal/mol

row,Sequence,relative binding free energy
1,TTGGACACGTGTTGGC,0.21 kcal/mol
2,TATGGCACGTGGTTCG,-0.13 kcal/mol
3,AAGAGCACGTGTAATG,-0.01 kcal/mol
4,GATTTCACGTGGCTTT,0.12 kcal/mol
5,TGGGGCACGTGAAGAT,0.19 kcal/mol
6,GAGTACACGTGATTGG,0.06 kcal/mol
7,CTGGTCACGTGGGGTG,-0.05 kcal/mol
8,GGTTACACGTGAGGGT,0.4 kcal/mol
9,GTTATCACGTGTCGCG,0.32 kcal/mol
10,GTCGGCACGTGGTGGG,-0.09 kcal/mol
11,CGATGCACGTGTAGGG,0 kcal/mol
12,TTAAGCACGTGCGTAG,-0.03 kcal/mol
13,TTTGTCACGTGTTACG,0.05 kcal/mol
14,TGGTGCACGTGGGGGC,-0.14 kcal/mol
15,TGTTGCACGTGAGGAC,0.14 kcal/mol
16,ACTTGCACGTGTGGAG,0.04 kcal/mol
17,GTGTGCACGTGGGAGG,-0.08 kcal/mol
18,TAAATCACGTGAGTTA,0.31 kcal/mol
19,TGGGGCACGTGGGTTC,-0.23 kcal/mol
20,CAGTGCACGTGGTGTC,-0.12 kcal/mol
21,ATTGTCACGTGATTCT,0.05 kcal/mol
22,CTTATCACGTGTGGGC,0.14 kcal/mol
23,TGGTGCACGTGGAACG,0.01 kcal/mol

row,Sequence,relative binding free energy
1,TTAGCCACGTGTTGAT,-0.13 kcal/mol
2,TGTCGCACGTGTAAGT,0.16 kcal/mol
3,AGGTACACGTGGGTAA,-0.13 kcal/mol
4,AGGGACACGTGCGGGC,0.05 kcal/mol
5,ATTGGCACGTGGAAAG,-0.12 kcal/mol
6,TTTAGCACGTGGGAAT,0 kcal/mol
7,GAATGCACGTGTAGTT,0.09 kcal/mol
8,AATATCACGTGTGTAT,0.07 kcal/mol
9,TAGGTCACGTGAGGTC,0.27 kcal/mol
10,TTTATCACGTGAAGGG,0.41 kcal/mol
11,TTGTTCACGTGAAGCG,0.28 kcal/mol
12,GATTTCACGTGCGTTT,0.32 kcal/mol
13,TTTACCACGTGGGAGG,-0.08 kcal/mol
14,ACGGTCACGTGTGCTG,0.07 kcal/mol
15,AGTGACACGTGGGCGT,-0.12 kcal/mol
16,GTTGTCACGTGAATTT,0.31 kcal/mol
17,TTGCGCACGTGGTCAT,-0.21 kcal/mol
18,AGTAACACGTGTTGGG,0.12 kcal/mol
19,GGAGTCACGTGATTGT,0.3 kcal/mol
20,GGCAGCACGTGCGGTT,-0.1 kcal/mol
21,AGGGTCACGTGATGAA,0.34 kcal/mol
22,AAGAACACGTGTGTTG,-0.05 kcal/mol
23,TAGATCACGTGAATAG,0.31 kcal/mol

row,Sequence,relative binding free energy
1,ATTTTCACGTGTGGAG,0.23 kcal/mol
2,TGCAGCACGTGGGTAA,-0.15 kcal/mol
3,AGCTGCACGTGTGATG,0.1 kcal/mol
4,CTGTTCACGTGGGTGA,0.15 kcal/mol
5,TGGGTCACGTGAAAAG,0.4 kcal/mol
6,TTTATCACGTGGGGGC,0.06 kcal/mol
7,GTAGTCACGTGGGCCG,0.07 kcal/mol
8,GGAAACACGTGTGTTA,-0.11 kcal/mol
9,TCGCGCACGTGTTGGT,-0.02 kcal/mol
10,ATTGCCACGTGAAGGG,0.07 kcal/mol
11,ACGTGCACGTGGGATT,-0.18 kcal/mol
12,GTTGACACGTGGTATA,-0.06 kcal/mol
13,GTTTGCACGTGCTCGT,-0.01 kcal/mol
14,TTATTCACGTGGGAAA,0.21 kcal/mol
15,TTTAGCACGTGGGTTG,-0.2 kcal/mol
16,GATTGCACGTGTAGCG,0.12 kcal/mol
17,TTCGGCACGTGTTTAT,0 kcal/mol
18,CGAGTCACGTGGGAGT,0.07 kcal/mol
19,GGTGGCACGTGGGTAT,-0.15 kcal/mol
20,CGTAACACGTGAGCGT,0.29 kcal/mol
21,GTCGGCACGTGGGTAC,-0.15 kcal/mol
22,GGGGCCACGTGGGGGT,-0.09 kcal/mol
23,CGGTGCACGTGCAGGG,-0.11 kcal/mol
